# Results from paper PMC9911399, “Two distinct binding modes provide the RNA-binding protein RbFox with extraordinary sequence specificity”.
# Where a chain is given by its changes, count along the chain named. The list shows a part of the results.
# B1: CCUGUUA (DNA:RNA)
# RNA: GGGAGACCGGAAUUCAGAUUGUCCCCUGUUAUUAAAUCCCGUCGUAGCCACCA
# DNA 1: CAATCTGAATTCCGGTCTCCC
# DNA 2: TGGTGGCTACGACGGGATT
# B2: CGUACGG (DNA:RNA)
# RNA: B1 RNA with C26G, G28A, U29C, U30G, A31G
# DNA 1: CAATCTGAATTCCGGTCTCCC
# DNA 2: TGGTGGCTACGACGGGATT
# B3: CGACACC (DNA:RNA)
# RNA: B1 RNA with C26G, U27A, G28C, U29A, U30C, A31C
# DNA 1: CAATCTGAATTCCGGTCTCCC
# DNA 2: TGGTGGCTACGACGGGATT
# B4: CAGGGCA (DNA:RNA)
# RNA: B1 RNA with C26A, U27G, U29G, U30C
# DNA 1: CAATCTGAATTCCGGTCTCCC
# DNA 2: TGGTGGCTACGACGGGATT
# B5: GCCGACG (DNA:RNA)
# RNA: B1 RNA with C25G, U27C, U29A, U30C, A31G
# DNA 1: CAATCTGAATTCCGGTCTCCC
# DNA 2: TGGTGGCTACGACGGGATT
# B6: GGAGACA (DNA:RNA)
# RNA: B1 RNA with C25G, C26G, U27A, U29A, U30C
# DNA 1: CAATCTGAATTCCGGTCTCCC
# DNA 2: TGGTGGCTACGACGGGATT
# B7: ACGCCUU (DNA:RNA)
# RNA: B1 RNA with C25A, U27G, G28C, U29C, A31U
# DNA 1: CAATCTGAATTCCGGTCTCCC
# DNA 2: TGGTGGCTACGACGGGATT
# B8: GGUUAUU (DNA:RNA)
# RNA: B1 RNA with C25G, C26G, G28U, U29A, A31U
# DNA 1: CAATCTGAATTCCGGTCTCCC
# DNA 2: TGGTGGCTACGACGGGATT
# B9: CUUCCAC (DNA:RNA)
# RNA: B1 RNA with C26U, G28C, U29C, U30A, A31C
# DNA 1: CAATCTGAATTCCGGTCTCCC
# DNA 2: TGGTGGCTACGACGGGATT
# B10: CUCUCGC (DNA:RNA)
# RNA: B1 RNA with C26U, U27C, G28U, U29C, U30G, A31C
# DNA 1: CAATCTGAATTCCGGTCTCCC
# DNA 2: TGGTGGCTACGACGGGATT
# B11: CAUUAUG (DNA:RNA)
# RNA: B1 RNA with C26A, G28U, U29A, A31G
# DNA 1: CAATCTGAATTCCGGTCTCCC
# DNA 2: TGGTGGCTACGACGGGATT
# B12: UGUGGGC (DNA:RNA)
# RNA: B1 RNA with C25U, C26G, U29G, U30G, A31C
# DNA 1: CAATCTGAATTCCGGTCTCCC
# DNA 2: TGGTGGCTACGACGGGATT
# B13: UAGACCG (DNA:RNA)
# RNA: GGGAGACCGGAAUUCAGAUUGUCCUAGACCGUUAAAUCCCGUCGUAGCCACCA
# DNA 1: CAATCTGAATTCCGGTCTCCC
# DNA 2: TGGTGGCTACGACGGGATT
# B14: CAACGUG (DNA:RNA)
# RNA: B1 RNA with C26A, U27A, G28C, U29G, A31G
# DNA 1: CAATCTGAATTCCGGTCTCCC
# DNA 2: TGGTGGCTACGACGGGATT
# B15: UGAUUCU (DNA:RNA)
# RNA: B13 RNA with A26G, G27A, A28U, C29U, G31U
# DNA 1: CAATCTGAATTCCGGTCTCCC
# DNA 2: TGGTGGCTACGACGGGATT
# B16: GUGGUAA (DNA:RNA)
# RNA: B1 RNA with C25G, C26U, U27G, U30A
# DNA 1: CAATCTGAATTCCGGTCTCCC
# DNA 2: TGGTGGCTACGACGGGATT
# B17: ACAGUCA (DNA:RNA)
# RNA: B1 RNA with C25A, U27A, U30C
# DNA 1: CAATCTGAATTCCGGTCTCCC
# DNA 2: TGGTGGCTACGACGGGATT
# B18: AGGCUAG (DNA:RNA)
# RNA: B13 RNA with U25A, A26G, A28C, C29U, C30A
# DNA 1: CAATCTGAATTCCGGTCTCCC
# DNA 2: TGGTGGCTACGACGGGATT
# B19: GUCACCC (DNA:RNA)
# RNA: B13 RNA with U25G, A26U, G27C, G31C
# DNA 1: CAATCTGAATTCCGGTCTCCC
# DNA 2: TGGTGGCTACGACGGGATT
# B20: CAGAGAG (DNA:RNA)
# RNA: B13 RNA with U25C, C29G, C30A
# DNA 1: CAATCTGAATTCCGGTCTCCC
# DNA 2: TGGTGGCTACGACGGGATT
# B21: CUCCUAA (DNA:RNA)
# RNA: B1 RNA with C26U, U27C, G28C, U30A
# DNA 1: CAATCTGAATTCCGGTCTCCC
# DNA 2: TGGTGGCTACGACGGGATT
# B22: UCACGAA (DNA:RNA)
# RNA: B1 RNA with C25U, U27A, G28C, U29G, U30A
# DNA 1: CAATCTGAATTCCGGTCTCCC
# DNA 2: TGGTGGCTACGACGGGATT
# B23: GUUUAAC (DNA:RNA)
# RNA: B1 RNA with C25G, C26U, G28U, U29A, U30A, A31C
# DNA 1: CAATCTGAATTCCGGTCTCCC
# DNA 2: TGGTGGCTACGACGGGATT
# B24: CAACUGA (DNA:RNA)
# RNA: B1 RNA with C26A, U27A, G28C, U30G
# DNA 1: CAATCTGAATTCCGGTCTCCC
# DNA 2: TGGTGGCTACGACGGGATT
# B25: AUGCCCU (DNA:RNA)
# RNA: B13 RNA with U25A, A26U, A28C, G31U
# DNA 1: CAATCTGAATTCCGGTCTCCC
# DNA 2: TGGTGGCTACGACGGGATT
# B26: GCUAUUG (DNA:RNA)
# RNA: B1 RNA with C25G, G28A, A31G
# DNA 1: CAATCTGAATTCCGGTCTCCC
# DNA 2: TGGTGGCTACGACGGGATT
# B27: CCAGGAG (DNA:RNA)
# RNA: B1 RNA with U27A, U29G, U30A, A31G
# DNA 1: CAATCTGAATTCCGGTCTCCC
# DNA 2: TGGTGGCTACGACGGGATT
# B28: CGCACGA (DNA:RNA)
# RNA: B1 RNA with C26G, U27C, G28A, U29C, U30G
# DNA 1: CAATCTGAATTCCGGTCTCCC
# DNA 2: TGGTGGCTACGACGGGATT
# B29: UAGGACG (DNA:RNA)
# RNA: B13 RNA with A28G, C29A
# DNA 1: CAATCTGAATTCCGGTCTCCC
# DNA 2: TGGTGGCTACGACGGGATT
# B30: UACGUUG (DNA:RNA)
# RNA: B1 RNA with C25U, C26A, U27C, A31G
# DNA 1: CAATCTGAATTCCGGTCTCCC
# DNA 2: TGGTGGCTACGACGGGATT
# B31: CGUUGCA (DNA:RNA)
# RNA: B1 RNA with C26G, G28U, U29G, U30C
# DNA 1: CAATCTGAATTCCGGTCTCCC
# DNA 2: TGGTGGCTACGACGGGATT
# Target: T1, RBFOX1 RRM RbFoxmut (Fox-RRM*) (Homo sapiens, UniProt Q9NWB1 109-208, R118D;E147R;N151S;E152T)
# T1 sequence: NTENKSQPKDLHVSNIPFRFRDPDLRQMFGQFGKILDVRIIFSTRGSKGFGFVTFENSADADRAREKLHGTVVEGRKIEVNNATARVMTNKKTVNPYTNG
# Assay: EMSA; HiTS-Eq, 1 nM pool, 10 min; buffer printed only for the single-RNA assays: 10 mM Tris pH 7.5, 150 mM NaCl, 3.4 mM EDTA, 0.001% NP-40, 30 C
# Conditions: tags: His6 N-terminal (pET28a); label: 5' 32P
# Method in brief: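 Purified wild-type or mutant RbFox RRM at increasing concentrations was equilibrated with 1 nM of 5′-radiolabelled RNA carrying 7 randomized nucleotides for 10 min in 50 µL. Unbound RNA was separated by 8% native PAGE and sequenced. Relative association constants came from read-count changes of each RNA species compared with the control reaction, normalised to the cognate motif.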
row,Binder,binding signal
1,B1,0.143 KA relative to UGCAUGU
2,B2,0.116 KA relative to UGCAUGU
3,B3,0.0301 KA relative to UGCAUGU
4,B4,0.0722 KA relative to UGCAUGU
5,B5,0.079 KA relative to UGCAUGU
6,B6,0.089 KA relative to UGCAUGU
7,B7,0.0769 KA relative to UGCAUGU
8,B8,0.076 KA relative to UGCAUGU
9,B9,0.0949 KA relative to UGCAUGU
10,B10,0.0846 KA relative to UGCAUGU
11,B11,0.163 KA relative to UGCAUGU
12,B12,0.0948 KA relative to UGCAUGU
13,B13,0.0461 KA relative to UGCAUGU
14,B14,0.115 KA relative to UGCAUGU
15,B15,0.115 KA relative to UGCAUGU
16,B16,0.149 KA relative to UGCAUGU

row,Binder,binding signal
1,B17,0.0922 KA relative to UGCAUGU
2,B18,0.107 KA relative to UGCAUGU
3,B19,0.0629 KA relative to UGCAUGU
4,B20,0.108 KA relative to UGCAUGU
5,B21,0.0737 KA relative to UGCAUGU
6,B22,0.0781 KA relative to UGCAUGU
7,B23,0.0991 KA relative to UGCAUGU
8,B24,0.0646 KA relative to UGCAUGU
9,B25,0.0993 KA relative to UGCAUGU
10,B26,0.152 KA relative to UGCAUGU
11,B27,0.134 KA relative to UGCAUGU
12,B28,0.23 KA relative to UGCAUGU
13,B29,0.0685 KA relative to UGCAUGU
14,B30,0.0833 KA relative to UGCAUGU
15,B31,0.218 KA relative to UGCAUGU
